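Assay format: 96-well plates, 48-hour exposure. At the GI50, growth is halved. Definition used: TGI = concentration required for complete inhibition of growth.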
tested on: NCI-H322M lung; assay: NCI-60 cell line screen, 48 h

Structure (SMILES) | TGI | GI50
Cc1cccc(C)c1NC(=O)CCc1nnc2s/c(=C\c3ccc(N(C)C)cc3)c(=O)n12 | > 100 µM | 
Cc1c(Cl)c(=O)oc2cc(OC/C=C3\CCC(=O)O3)ccc12 | 95.5 µM | 33.8 µM
Cc1cc(-c2nnc(/C=C/c3ccc4c(c3)OCO4)o2)n[nH]1 | > 50 µM | 15.8 µM
O=C(/C=C/c1ccc(OCc2ccccc2)cc1)NCc1ccc(C(=O)NCCc2c[nH]c3ccccc23)cc1 | > 100 µM | 
COc1cc(Cl)cc(-c2nn(-c3cccc(NC(=O)Nc4cccc(C(F)(F)F)c4)c3)cc2-c2ccncc2)c1 | 22.5 µM | 2.63 µM
Cc1cc(C(=O)/C=C/c2ccc[nH]2)ccc1-n1ccc(C(F)(F)F)n1 | > 100 µM | 44.5 µM
CNCC/C=C1\c2cc3c(cc2-c2c1c1cc(OC)c(OC)cc1c(=O)n2C)OCO3 | 1.65 µM | 
C=CC(COC(=O)C(C)(C)OC(C)=O)c1ccc(OC(=O)C(C)C)c(OC)c1 (stereo not drawn) | 35.2 µM | 
O=C(Cc1nc2sc3c(c2c(=O)[nH]1)CCCC3)Nc1ccccc1 | > 100 µM | 
CCc1cccc(C(C)C)c1NC(=O)CCl | > 100 µM | 
COC(=O)c1cccc2c3ccccc3c3ccccc3c12 | > 100 µM | 
C[C@@H](CC(=O)O)OC1OC(COC(=O)C(C)(C)C)C(OC(=O)C(C)(C)C)C(OC(=O)C(C)(C)C)C1OC(=O)C(C)(C)C (stereo partly drawn) | > 100 µM | 
COC(=O)CCC1=NCC(C)(C)O1 | > 10 µM | 
O=[N+]([O-])c1cccc(-c2nc(-c3ccc(Cl)cc3Cl)cn2-c2ccccc2)c1 | 3.16 µM | 1.04 µM
COc1ccc(C(=O)O[C@H]2CC[C@@]3(C)[C@@H]4CC[C@H]5[C@]6(O)C[C@H](O)[C@@]7(O)[C@@H](CN8C[C@@H](C)CC[C@H]8[C@@]7(C)O)[C@]6(O)C[C@@]53OC24O)cc1OC | > 100 µM | 
O=C(NCCc1ccccc1)Nc1ccc2cc3ccc(NC(=O)NCCc4ccccc4)cc3nc2c1 | 2.99 µM | 1.14 µM
COc1ccc2c3c([nH]c(=O)c2c1C(=O)O)-c1ccccc1CC3 | > 100 µM | 
CCOC(=O)C(C)Sc1nnc(COc2ccc(Cl)cc2)n1-c1ccccc1 (stereo not drawn) | 91.3 µM | 
CC1=C(C(=O)NCc2ccccc2)C(c2ccc(Cl)c(Cl)c2)C(C(=O)NCc2ccccc2)=C(C)N1 | > 100 µM | 
O=C(O)[C@@H]1OCCOCCO[C@@H](C(=O)O)[C@H](C(=O)O)OCCOCCO[C@H]1C(=O)O | > 100 µM | 
CCOC(=O)C1C=C2O[C@@H]3OC4(CCCCC4)O[C@@H]3C2C2C(=O)CCC(=O)[C@@]12C(=O)OC (stereo partly drawn) | > 100 µM | 
CCOC(=O)/C(=C\NC(C)(C)C)c1nc2ccccc2[nH]1 | 54.5 µM | 
CCC1C(C#N)=C(O)NC(O)=C1C#N | > 100 µM | 
O=C1/C=C/[C@@H](O)[C@@H]2C[C@@H](O)C[C@H]2/C=C/CCC[C@H](CCc2ccc3ncccc3c2)O1 | > 100 µM | 0.288 µM

Structure (SMILES) | TGI | GI50
CCCOc1cc2ccccc2cc1C(=O)Nc1nc(NC)c2c(ccc3nccc32)[nH]1 | 2.34 µM | 1.06 µM
O=C(c1ccco1)N(C(=S)N1CCN(c2ccccc2)CC1)C1CCCCC1 | > 100 µM | 
CC(C)(C)OP(=O)(OC(C)(C)C)C(O)c1ccc(/C=C(\C#N)C(N)=O)cc1 (stereo not drawn) | > 100 µM | 
COC(=O)CN(CC(O)C(NC(C)=O)C(O)C=O)C(=O)OCc1ccccc1 (stereo not drawn) | > 100 µM | 
Cc1coc2c1C(=O)C(=O)c1ccccc1-2 | 2.82 µM | 
Cc1cc(S(=O)(=O)Nc2nnc3c4ccccc4cnn23)c(S)cc1Cl | > 100 µM | 
O=C(Nc1cccc(-n2cc(-c3ccncc3)c(-c3ccc(O)c(Cl)c3)n2)c1)c1ccc2c(c1)OCCO2 | > 100 µM | > 100 µM
CC1=CC(C)(c2c[nH]c3ccccc23)CC(C)(C)c2c1[nH]c1ccccc21 (stereo not drawn) | 45.6 µM | 
[N-]=[N+]=NC1(c2ccccc2)C(=O)C(Cl)=C(c2ccccc2)N(c2ccccc2)C1=O (stereo not drawn) | > 100 µM | 
CCCCCCCCCCCCCCCCCCNCc1ccc(Cl)cc1 | 15.2 µM | 3.11 µM
COC1CC(OC2CCC3(C)C(=CCC4C3C(OC(C)=O)C(OC(=O)CC(C)C)C3(C)C(C(C)=O)CCC43O)C2)OC(C)C1OC1CC(OC)C(OC2CC(OC)C(OC3OC(C)C(O)C(OC)C3O)C(C)O2)C(C)O1 (stereo not drawn) | > 100 µM | 
Cc1ccc(S(=O)(=O)N2CCCSCCSCCCN(S(=O)(=O)c3ccc(C)cc3)CC2)cc1 | > 100 µM | 
COc1ccc2c(c1)c1c(n2CCN2CCOCC2)-c2cccc(OC)c2CC1 | > 100 µM | 
N#CCCN(CCC#N)c1ccc(C(N=Nc2ccc(Cl)cc2)=Nc2ccccc2)cc1 | 27.1 µM | 
O=c1[nH]c2cc([N+](=O)[O-])ccc2nc1/C(=N/Nc1ccccc1)C(O)c1ccco1 (stereo not drawn) | > 100 µM | 
c1ccc2c(c1)nc1n2CSCC1 | > 100 µM | 
CCc1c2cc(OC)c(OC)cc2cc2c3cc(OC)c(OC)cc3cc[n+]12 (tested in a mixture with another compound) | > 76.8 µM | 
CCOc1ccccc1NC(=O)C(=O)C(/C(=N/N)C(=O)OC)c1nc2ccc([N+](=O)[O-])cc2[nH]c1=O (stereo not drawn) | > 100 µM | 
Cc1cc(C)c2c(n1)S(=O)(=O)N(CCCN1CCN(c3cccc(Cl)c3)CC1)/C(=C(\O)c1ccccc1)C2=O | > 100 µM | 
Cn1c(=O)nc2n(-c3ccc(Cl)cc3)c(-c3ccccc3)c(-c3ccccc3)nc-2c1=O | > 100 µM | 
COC(=O)c1cc(OS(=O)(=O)C(F)(F)F)c(=O)n2c1CCCC2 | > 100 µM | 
CCOC(=O)c1nc2ccccc2n(CC)c1=O | > 100 µM | 
O=C1C2=Cc3ccccc3OC2(O)Oc2ccccc21 (stereo not drawn) | > 100 µM | 
O=NN1C(c2ccccc2)C2CCCC(C2=O)C1c1ccccc1 (stereo not drawn) | > 100 µM | 

Source: PubChem BioAssay (NCI)
